According to paper PMC12136788:
This is one part of the list.

T1: UNK ZnF1-3 (human, UniProt Q9C0B0 31-174)
T1 sequence: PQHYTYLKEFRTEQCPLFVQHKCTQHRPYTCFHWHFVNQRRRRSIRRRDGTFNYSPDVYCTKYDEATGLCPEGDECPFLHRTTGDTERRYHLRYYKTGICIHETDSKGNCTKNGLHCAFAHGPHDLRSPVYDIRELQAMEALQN

B1: chr7:141438946:141438947:+_ENSG00000106028_ENST00000265304|hu_mus|hu_hu_hu_mus_True|8_58 (ssRNA)
RNA: GGGAGUUCUACAGUCCGACGAUCGACGAAAUACCUGUAACACAGGUCUUCGAAACAUGGCUUCUGUUUUUCUUACAGUCUAAUCUUUAGGCUUUUCCUAAAGGAAAGAAAGAAAAGAGAAAAAUGAGCAGGGGAUCAACUACACAACAGAGGAUUGAGCAUCA
B2: chr1:109605286:109605287:-_ENSG00000197780_ENST00000461096|hu_mus|hu_hu_hu_mus_True|8_38 (ssRNA)
RNA: GGGAGUUCUACAGUCCGACGAUCAAGUUUCAGAGUAACAUUCAGUAACCUCUUUAAAUGCAAUUAUCCUUAUUAUAAGCUAAGCAGAAUAAUAAUUUAAUACAUAGAGUGAACUACACACAAAGCCGUGUAUUCAGAAAUGGUCAACAGAGGAUUGAGCAUCA
B3: chr5:162943533:162943534:+_ENSG00000038274_ENST00000321757|hu_hu|FALSE|FALSE (ssRNA)
RNA: GGGAGUUCUACAGUCCGACGAUCAGGAAUCCUCAAAACAGCAGCUCCUAGAUUGUUCUCCAGGACAGCCUUUUCUCCAUCUAAUUUUGUUUUGCCAUACAAAUUUAGGGGAGCUGGUAUGUCUUCCUCUCUGUAAGGUGGAUUCAACAGAGGAUUGAGCAUCA
B4: 32640894_32641014_2729_CDS_ENSG00000115760_ENST00000421745|human|control|control (ssRNA)
RNA: GGGAGUUCUACAGUCCGACGAUCUGAGGUUAACUGCAUGUCCUCAAUAGGUUCCUCACAGUCAUCCUCUCGAUUAUCCAAUAUAUCGGGUGGAAGCAAAAUGAGCGAGGUAAUUGUGUCCUGGGGAUCUUUGAUAUGUUGUAUCAACAGAGGAUUGAGCAUCA
B5: chr4:99997923:99997924:-_ENSG00000197894_ENST00000296412|hu_mus|FALSE|FALSE (ssRNA)
RNA: GGGAGUUCUACAGUCCGACGAUCAGCCCCGUAGCCAGUUGAAAUACCACAGCCGAGAAGGCAGACUUUAUCCAAAGGGGCCGAAGGAUCGAUUUUAGCAACAGAGAUGUCAGCCACAACUGUGUACUCGGAAAAUGUGCUAGUCAACAGAGGAUUGAGCAUCA
B6: chr9:32553822:32553823:-_ENSG00000165264_ENST00000350021|hu_mus|FALSE|FALSE (ssRNA)
RNA: GGGAGUUCUACAGUCCGACGAUCUCUGAGAAUAAGCUUUAUUAAUUACUUUUCCAGGAAACAGAUUCAGUAAAUACAGCACUUUAGGAACAUACUUGUGCUGUUACACAAGUCUGUUAAGUUUUUAAGGACUCUUCAAUGAUGCAACAGAGGAUUGAGCAUCA

What follows are binders tested against T1, UNK ZnF1-3 (assay: nsRBNS (natural sequence RNA bind-n-seq); RBNS binding buffer (assumed for nsRBNS): 25 mM Tris pH 7.5, 150 mM KCl, 3 mM MgCl2, 0.01% Triton X-100, 500 ug/ml BSA, 20 U/ml SUPERase-In, 4 C; UNK is unkempt and MSI1 is Musashi-1; names of the RNAs are library labels; protein concentration not given here; high values mean tight binding).

| Binder | binding signal |
| --- | --- |
| B1 | 0.57 enrichment R |
| B2 | 0.647 enrichment R |
| B3 | 0.852 enrichment R |
| B4 | 0.573 enrichment R |
| B5 | 2.35 enrichment R |
| B6 | 0.696 enrichment R |
